Assays:
TR4 = target: T1, TR4 (mouse, UniProt P49117 1-596); assay: co-IP from untransfected MEL nuclear extract, IP with anti-TR4, immunoblot
T1 construct: Endogenous protein, immunoprecipitated or detected with a rabbit polyclonal antibody; also called NR2C2
T1 sequence (looked up): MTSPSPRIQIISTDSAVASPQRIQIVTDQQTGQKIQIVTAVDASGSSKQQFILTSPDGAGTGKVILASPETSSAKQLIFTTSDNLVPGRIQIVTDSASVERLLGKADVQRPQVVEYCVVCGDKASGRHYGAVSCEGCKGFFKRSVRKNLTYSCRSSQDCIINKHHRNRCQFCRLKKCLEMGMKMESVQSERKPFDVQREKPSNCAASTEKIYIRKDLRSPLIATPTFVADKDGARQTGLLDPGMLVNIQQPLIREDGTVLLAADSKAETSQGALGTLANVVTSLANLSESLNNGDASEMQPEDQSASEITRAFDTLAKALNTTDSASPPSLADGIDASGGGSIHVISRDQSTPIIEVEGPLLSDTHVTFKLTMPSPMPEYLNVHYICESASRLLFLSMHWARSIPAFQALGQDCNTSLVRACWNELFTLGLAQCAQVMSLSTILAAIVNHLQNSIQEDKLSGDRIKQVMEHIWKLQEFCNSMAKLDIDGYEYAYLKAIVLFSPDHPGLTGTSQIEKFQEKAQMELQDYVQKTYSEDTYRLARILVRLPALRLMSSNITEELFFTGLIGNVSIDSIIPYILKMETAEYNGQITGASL

[1] = target: T2, biotin-FLAG-tagged TR2 and TR4 (biotin-FLAG-TR2 and biotin-FLAG-TR4 co-expressed in BirA-expressing MEL cells) (UniProt Q505F1 1-590; P49117 1-596, biotinylated on the N-terminal biotinylation tag by BirA biotin ligase); assay: streptavidin pull-down of biotin-tagged TR2/TR4 from MEL nuclear extract, mass spectrometry and immunoblot
T2 construct: Both tagged proteins were expressed together and captured together on streptavidin beads, so a co-purified protein cannot be assigned to TR2 or TR4 alone; Associations are from nuclear extracts and may be indirect; also called biotin-tagged TR2 and TR4; biotinylated TR2/TR4; not shown: 23-amino acid biotinylation tag (de Boer et al., 2003); FLAG tag
T2 sequence (looked up) 1: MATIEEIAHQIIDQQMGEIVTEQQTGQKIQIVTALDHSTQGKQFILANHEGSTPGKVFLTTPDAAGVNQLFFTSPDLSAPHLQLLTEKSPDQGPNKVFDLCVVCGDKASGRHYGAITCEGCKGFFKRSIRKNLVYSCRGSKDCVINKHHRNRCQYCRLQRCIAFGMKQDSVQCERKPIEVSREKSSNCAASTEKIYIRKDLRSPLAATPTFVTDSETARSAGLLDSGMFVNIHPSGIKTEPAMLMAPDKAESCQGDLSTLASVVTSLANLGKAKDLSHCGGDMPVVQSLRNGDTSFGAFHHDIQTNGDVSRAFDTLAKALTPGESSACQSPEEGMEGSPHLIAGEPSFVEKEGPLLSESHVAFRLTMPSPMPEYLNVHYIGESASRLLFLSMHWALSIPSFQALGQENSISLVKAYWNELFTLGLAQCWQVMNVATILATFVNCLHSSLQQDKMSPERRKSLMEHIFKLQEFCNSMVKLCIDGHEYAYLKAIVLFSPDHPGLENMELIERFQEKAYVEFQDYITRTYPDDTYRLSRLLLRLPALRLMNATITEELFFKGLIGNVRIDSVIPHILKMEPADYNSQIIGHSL
T2 sequence (looked up) 2: T1 sequence (looked up)

TR2 = target: T3, TR2 (mouse, UniProt Q505F1 1-590); assay: co-IP from untransfected MEL nuclear extract, IP with anti-TR2, immunoblot
T3 construct: Endogenous protein, immunoprecipitated or detected with a rabbit polyclonal antibody; also called NR2C1
T3 sequence (looked up): T2 sequence (looked up) 1

Measured: binding result

B1: MBD2 (other, mouse)
chain: MRAHPGGGRCCPEQEEGESAAGGSGAGGDSAIEQGGQGSALAPSPVSGVRREGARGGGRGRGRWKQAARGGGVCGRGRGRGRGRGRGRGRGRGRGRPQSGGSGLGGDGGGGAGGCGGGSGGGVAPRRDPVPFPSGSSGPGPRGPRATES[about 60 residues omitted]SKLQKNKQRLRNDPLNQNKGKPDLNTTLPIRQTASIFKQPVTKFTNHPSNKVKSDPQRMNEQPRQLFWEKRLQGLSASDVTEQIIKTMELPKGLQGVGPGSNDETLLSAVASALHTSSAPITGQVSAAVEKNPAVWLNTSQPLCKAFIVTDEDIRKQEERVQQVRKKLEEALMADILSRAADTEEVDIDMDSGDEA
no binding: all assays above

— patent US20130059806A1 (REGENTS OF THE UNIVERSITY OF MICHIGAN, published 2013)
